From paper PMC8582154
Results are given in words; binding and its absence hold for the method and conditions named. Binding seen in cells or lysates may run through a third protein. Some entries that bind do so weakly or less than the wild type. For some assays here: Tags and fused reporters may be left off the sequences shown. One block for each molecule: values may come before it.

By UniProt entry, the sequences of proteins in these tests, tags left out.
UniProt Q96GD4: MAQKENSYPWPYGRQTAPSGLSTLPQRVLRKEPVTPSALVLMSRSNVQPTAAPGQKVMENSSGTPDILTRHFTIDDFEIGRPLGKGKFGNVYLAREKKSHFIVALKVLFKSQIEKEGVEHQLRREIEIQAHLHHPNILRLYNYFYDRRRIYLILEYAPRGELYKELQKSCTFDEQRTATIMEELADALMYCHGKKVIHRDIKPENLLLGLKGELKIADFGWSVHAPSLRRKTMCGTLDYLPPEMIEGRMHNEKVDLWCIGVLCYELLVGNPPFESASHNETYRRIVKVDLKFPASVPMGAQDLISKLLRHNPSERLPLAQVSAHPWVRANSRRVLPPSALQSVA

Legend:
[1] = biological target: T1, Flag-USP3 (ubiquitin specific peptidase 3) (human) (UniProt Q9Y6I4); test: co-IP; ECa109 cells with exogenous Flag-USP3 and HA-Aurora A, RIPA lysate, anti-Flag beads overnight at 4 °C, western blot (Fig. 5B)
T1 sequence: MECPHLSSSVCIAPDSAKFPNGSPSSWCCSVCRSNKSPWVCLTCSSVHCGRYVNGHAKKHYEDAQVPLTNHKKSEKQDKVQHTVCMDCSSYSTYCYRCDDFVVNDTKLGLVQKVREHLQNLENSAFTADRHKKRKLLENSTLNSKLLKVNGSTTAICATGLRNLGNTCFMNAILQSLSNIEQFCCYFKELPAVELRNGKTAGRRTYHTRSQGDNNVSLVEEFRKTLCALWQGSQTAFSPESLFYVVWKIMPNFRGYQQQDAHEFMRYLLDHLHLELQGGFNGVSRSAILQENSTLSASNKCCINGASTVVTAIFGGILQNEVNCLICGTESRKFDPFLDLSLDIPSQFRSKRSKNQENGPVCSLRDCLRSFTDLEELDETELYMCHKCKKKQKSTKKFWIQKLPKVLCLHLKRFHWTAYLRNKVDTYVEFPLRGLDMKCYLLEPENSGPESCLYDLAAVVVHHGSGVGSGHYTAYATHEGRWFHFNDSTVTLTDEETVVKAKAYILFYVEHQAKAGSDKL

[2] = biological target: T1, Flag-USP3 (ubiquitin specific peptidase 3) (human); test: co-IP; co-immunoprecipitation of Aurora A K143R and USP3 (Fig. 5F); which protein was precipitated is not told
USP3, endogenous (human) = biological target: T2, USP3, endogenous (human) (UniProt Q9Y6I4); test: co-IP; endogenous co-immunoprecipitation of USP3 and Aurora A (Fig. 5D and E)
T2 sequence: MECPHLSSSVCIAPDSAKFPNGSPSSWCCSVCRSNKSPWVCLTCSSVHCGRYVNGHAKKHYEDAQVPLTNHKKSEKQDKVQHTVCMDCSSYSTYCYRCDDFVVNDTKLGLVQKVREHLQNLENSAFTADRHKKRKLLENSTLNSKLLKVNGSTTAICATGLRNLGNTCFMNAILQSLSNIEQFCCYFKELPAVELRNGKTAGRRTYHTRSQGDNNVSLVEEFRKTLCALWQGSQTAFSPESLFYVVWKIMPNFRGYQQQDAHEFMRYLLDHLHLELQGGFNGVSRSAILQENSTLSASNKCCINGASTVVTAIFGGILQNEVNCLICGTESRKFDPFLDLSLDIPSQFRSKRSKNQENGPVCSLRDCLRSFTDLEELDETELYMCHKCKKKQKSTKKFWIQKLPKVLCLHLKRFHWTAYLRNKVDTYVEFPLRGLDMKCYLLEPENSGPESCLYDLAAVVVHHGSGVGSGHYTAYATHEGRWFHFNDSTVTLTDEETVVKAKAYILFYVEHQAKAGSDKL

HA-Aurora A = biological target: T3, HA-Aurora A (UniProt O14965); test: co-IP; ECa109 cells with exogenous Flag-USP3 and HA-Aurora A, RIPA lysate, immunoprecipitation of Aurora A (anti-HA beads) overnight at 4 °C, western blot (Fig. 5C)
T3 sequence: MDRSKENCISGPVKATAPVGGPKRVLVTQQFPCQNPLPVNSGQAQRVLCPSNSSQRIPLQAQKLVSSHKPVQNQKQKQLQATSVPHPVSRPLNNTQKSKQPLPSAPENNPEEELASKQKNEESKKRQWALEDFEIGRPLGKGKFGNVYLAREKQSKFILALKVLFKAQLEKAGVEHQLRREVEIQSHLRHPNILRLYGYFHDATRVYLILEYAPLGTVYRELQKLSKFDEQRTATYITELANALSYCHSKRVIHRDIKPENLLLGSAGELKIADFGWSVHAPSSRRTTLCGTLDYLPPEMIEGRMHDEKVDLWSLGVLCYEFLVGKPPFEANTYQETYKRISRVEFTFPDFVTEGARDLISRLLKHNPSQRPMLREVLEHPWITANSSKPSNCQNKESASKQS

binding [1]: no binding
Molecule: Aurora B (from UniProt Q96GD4 1-344) (enzyme)

binding [1]: binds
B1: HA-Aurora A (enzyme, UniProt O14965 1-403)
chain: MDRSKENCISGPVKATAPVGGPKRVLVTQQFPCQNPLPVNSGQAQRVLCPSNSSQRIPLQAQKLVSSHKPVQNQKQKQLQATSVPHPVSRPLNNTQKSKQPLPSAPENNPEEELASKQKNEESKKRQWALEDFEIGRPLGKGKFGNVYLAREKQSKFILALKVLFKAQLEKAGVEHQLRREVEIQSHLRHPNILRLYGYFHDATRVYLILEYAPLGTVYRELQKLSKFDEQRTATYITELANALSYCHSKRVIHRDIKPENLLLGSAGELKIADFGWSVHAPSSRRTTLCGTLDYLPPEMIEGRMHDEKVDLWSLGVLCYEFLVGKPPFEANTYQETYKRISRVEFTFPDFVTEGARDLISRLLKHNPSQRPMLREVLEHPWITANSSKPSNCQNKESASKQS

binding (USP3, endogenous (human)): binds
B3: Aurora A, endogenous (enzyme, UniProt O14965 1-403)
chain: MDRSKENCISGPVKATAPVGGPKRVLVTQQFPCQNPLPVNSGQAQRVLCPSNSSQRIPLQAQKLVSSHKPVQNQKQKQLQATSVPHPVSRPLNNTQKSKQPLPSAPENNPEEELASKQKNEESKKRQWALEDFEIGRPLGKGKFGNVYLAREKQSKFILALKVLFKAQLEKAGVEHQLRREVEIQSHLRHPNILRLYGYFHDATRVYLILEYAPLGTVYRELQKLSKFDEQRTATYITELANALSYCHSKRVIHRDIKPENLLLGSAGELKIADFGWSVHAPSSRRTTLCGTLDYLPPEMIEGRMHDEKVDLWSLGVLCYEFLVGKPPFEANTYQETYKRISRVEFTFPDFVTEGARDLISRLLKHNPSQRPMLREVLEHPWITANSSKPSNCQNKESASKQS

Continued, molecule first:

B2: Aurora A K143R (enzyme, UniProt O14965 1-403)
chain: MDRSKENCISGPVKATAPVGGPKRVLVTQQFPCQNPLPVNSGQAQRVLCPSNSSQRIPLQAQKLVSSHKPVQNQKQKQLQATSVPHPVSRPLNNTQKSKQPLPSAPENNPEEELASKQKNEESKKRQWALEDFEIGRPLGKGRFGNVYLAREKQSKFILALKVLFKAQLEKAGVEHQLRREVEIQSHLRHPNILRLYGYFHDATRVYLILEYAPLGTVYRELQKLSKFDEQRTATYITELANALSYCHSKRVIHRDIKPENLLLGSAGELKIADFGWSVHAPSSRRTTLCGTLDYLPPEMIEGRMHDEKVDLWSLGVLCYEFLVGKPPFEANTYQETYKRISRVEFTFPDFVTEGARDLISRLLKHNPSQRPMLREVLEHPWITANSSKPSNCQNKESASKQS
binding [2]: binds

B4: Flag-USP3 (ubiquitin specific peptidase 3) (enzyme, UniProt Q9Y6I4 1-520)
chain: MECPHLSSSVCIAPDSAKFPNGSPSSWCCSVCRSNKSPWVCLTCSSVHCGRYVNGHAKKHYEDAQVPLTNHKKSEKQDKVQHTVCMDCSSYSTYCYRCDDFVVNDTKLGLVQKVREHLQNLENSAFTADRHKKRKLLENSTLNSKLLKVNGSTTAICATGLRNLGNTCFMNAILQSLSNIEQFCCYFKELPAVELRNGKTAGRRTYHTRSQGDNNVSLVEEFRKTLCALWQGSQTAFSPESLFYVVWKIMPNFRGYQQQDAHEFMRYLLDHLHLELQGGFNGVSRSAILQENSTLSASNKCCINGASTVVTAIFGGILQNEVNCLICGTESRKFDPFLDLSLDIPSQFRSKRSKNQENGPVCSLRDCLRSFTDLEELDETELYMCHKCKKKQKSTKKFWIQKLPKVLCLHLKRFHWTAYLRNKVDTYVEFPLRGLDMKCYLLEPENSGPESCLYDLAAVVVHHGSGVGSGHYTAYATHEGRWFHFNDSTVTLTDEETVVKAKAYILFYVEHQAKAGSDKL
binding (HA-Aurora A): binds
